Measurements from the supplement of paper PMC8285479.
Structures can show the parent of a compound that is named as a salt. ± gives the standard deviation of the averaged measurements. Over roughly 1,900 compounds, “normalised cell viability (NPI; 0 = phenylarsine oxide control, 1 = DMSO control)” has its median near 1; the lowest 2% begin near 0.039. The list shows a part of the results.

System: NCI-H1944
Experiment: normalised cell viability (NPI; 0 = phenylarsine oxide control, 1 = DMSO control) (fraction of DMSO control); NCI-H1944 is a non-small cell lung cancer line; higher = more viable cells (less compound toxicity)
Conditions: 6 days
[1] = glucocorticoid arm: hydrocortisone 2.75 uM co-treatment, compound 1 µM
[2] = glucocorticoid arm: hydrocortisone 2.75 uM co-treatment, compound 5 µM
[3] = glucocorticoid arm: hydrocortisone 2.75 uM pre-treated 2 days and continued, compound 1 µM
[4] = glucocorticoid arm: hydrocortisone 2.75 uM pre-treated 2 days and continued, compound 5 µM
[5] = glucocorticoid arm: vehicle, compound 1 µM
[6] = glucocorticoid arm: vehicle, compound 5 µM
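Further: CTB read-out in 384-well plates, mean of triplicate wells, normalised per plate against 1 µM phenylarsine oxide and 0.1% DMSO, compounds added 24 h after seeding.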

Row | Structure (SMILES) | normalised cell viability [1] | normalised cell viability [2] | normalised cell viability [3] | normalised cell viability [4] | normalised cell viability [5] | normalised cell viability [6]
1 | CCN(CC)CCNC(=O)c1ccc(NC(C)=O)cc1 [N-Acetylprocainamide hydrochloride] | 0.9787 ± 0.0049 | 0.974 ± 0.0099 | 0.9943 ± 0.0067 | 0.977 ± 0.027 | 0.9883 ± 0.0038 | 0.9807 ± 0.0087
2 | CCCCCCN(CCCCCC)C(=O)Cc1c(-c2ccc(F)cc2)[nH]c2ccccc12 [N,N-Dihexyl-2-(4-fluorophenyl)indole-3-acetamide] | 0.9957 ± 0.0051 | 0.909 ± 0.019 | 1.001 ± 0.009 | 1.02 ± 0.017 | 0.9867 ± 0.004 | 1.01 ± 0.01
3 | N#C[C@@H]1CCCN1C(=O)CNC12CC3CC(CC(O)(C3)C1)C2 [Vildagliptin (LAF-237)] | 0.994 ± 0.0087 | 1 ± 0.011 | 0.9973 ± 0.0046 | 1.004 ± 0.01 | 0.998 ± 0.012 | 1.01
4 | CC(C)C[C@H](NC(=O)CNC(=O)c1cc(Cl)ccc1Cl)B(O)O | 0.978 ± 0.0095 | 0.886 ± 0.03 | 1.04 ± 0.01 | 1.04 ± 0.011 | 0.311 ± 0.032 | 0.0506 ± 0.0038
5 | CNc1cc(NS(=O)(=O)c2ccc(N)cc2)nc(NC)n1 [Ro 04-6790 dihydrochloride] | 0.997 ± 0.0027 | 0.997 ± 0.02 | 1.01 ± 0.024 | 0.983 ± 0.013 | 0.9827 ± 0.008 | 0.993 ± 0.01
6 | Oc1ccc(Nc2nc(-c3ccc(Cl)cc3)cs2)cc1 | 1.01 ± 0.011 | 1.05 ± 0.021 | 1.03 ± 0.01 | 1.023 ± 0.0058 | 1.007 ± 0.0058 | 1 ± 0.014
7 | N#Cc1ccc2[nH]c(O)c(-c3ccc(CN4CCOCC4)cn3)c2c1 | 1.11 ± 0.021 | 1.24 ± 0.021 | 1.053 ± 0.0058 | 1.11 ± 0.023 | 1.02 ± 0.011 | 1.05 ± 0.015
8 | COc1cc2ncnc(Nc3ccc(Cl)cc3F)c2cc1OC | 0.9033 ± 0.0086 | 0.707 ± 0.0017 | 0.907 ± 0.018 | 0.827 ± 0.059 | 0.921 ± 0.011 | 0.799 ± 0.025
9 | N[C@@H]1CCCN(c2c(/C=C3\SC(=O)NC3=O)cccc2-c2ccccc2)C1 | 0.899 ± 0.019 | 0.855 ± 0.032 | 0.909 ± 0.021 | 0.92 ± 0.027 | 0.9852 ± 0.0073 | 0.9982 ± 0.0072
10 | CO[C@H]1C[C@@H]2CC[C@@H](C)[C@@](O)(O2)C(=O)C(=O)N2CCCC[C@H]2C(=O)O[C@H]([C@H](C)C[C@@H]2CC[C@@H](O)[C@H](OC)C2)CC(=O)[C@H](C)/C=C(\C)[C@@H](O)[C@@H](OC)C(=O)[C@H](C)C[C@H](C)/C=C/C=C/C=C/1C [Sirolimus; RAPAMYCIN; Rapamycin(Sirolimus); Rapamycin] | 0.841 ± 0.032 | 0.775 ± 0.038 | 0.888 ± 0.018 | 0.886 ± 0.016 | 0.76 ± 0.025 | 0.654 ± 0.029
11 | CO[C@H]1C[C@@H]2CC[C@@H](C)[C@@](O)(O2)C(=O)C(=O)N2CCCC[C@H]2C(=O)O[C@H]([C@H](C)C[C@@H]2CC[C@@H](O)[C@H](OC)C2)CC(=O)[C@H](C)/C=C(\C)[C@@H](O)[C@@H](OC)C(=O)[C@H](C)C[C@H](C)/C=C/C=C/C=C/1C [Rapamycin (Sirolimus)] | 0.808 ± 0.029 | 0.747 ± 0.043 | 0.837 ± 0.041 | 0.803 ± 0.058 | 0.713 ± 0.036 | 0.655 ± 0.02
12 | Cc1[nH]c(/C=C2\C(=O)Nc3ccccc32)c(C)c1CCC(=O)O | 1.02 ± 0.01 | 1.053 ± 0.0058 | 1.01 ± 0.015 | 1.02 ± 0.044 | 1.01 ± 0.011 | 1.02 ± 0.015
